Results published in PMC4336329 (PLoS ONE, 2015).
The whole screen tested about 310,000 compounds, of which about 14,000 (4.5%) showed an effect of 50% or more. The effect is printed as a negative number. Some of the results follow.

These compounds were tested against human ether-à-go-go-related gene (hERG) potassium channel (human, UniProt Q12809) (assay: primary screen, population patch clamp on CHO cells stably expressing hERG).
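Note: peak tail current of the secondary pulse compared with the same well before compound.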

human ether-à-go-go-related gene (hERG) potassium channel, sequence (Q12809 whole entry, looked up): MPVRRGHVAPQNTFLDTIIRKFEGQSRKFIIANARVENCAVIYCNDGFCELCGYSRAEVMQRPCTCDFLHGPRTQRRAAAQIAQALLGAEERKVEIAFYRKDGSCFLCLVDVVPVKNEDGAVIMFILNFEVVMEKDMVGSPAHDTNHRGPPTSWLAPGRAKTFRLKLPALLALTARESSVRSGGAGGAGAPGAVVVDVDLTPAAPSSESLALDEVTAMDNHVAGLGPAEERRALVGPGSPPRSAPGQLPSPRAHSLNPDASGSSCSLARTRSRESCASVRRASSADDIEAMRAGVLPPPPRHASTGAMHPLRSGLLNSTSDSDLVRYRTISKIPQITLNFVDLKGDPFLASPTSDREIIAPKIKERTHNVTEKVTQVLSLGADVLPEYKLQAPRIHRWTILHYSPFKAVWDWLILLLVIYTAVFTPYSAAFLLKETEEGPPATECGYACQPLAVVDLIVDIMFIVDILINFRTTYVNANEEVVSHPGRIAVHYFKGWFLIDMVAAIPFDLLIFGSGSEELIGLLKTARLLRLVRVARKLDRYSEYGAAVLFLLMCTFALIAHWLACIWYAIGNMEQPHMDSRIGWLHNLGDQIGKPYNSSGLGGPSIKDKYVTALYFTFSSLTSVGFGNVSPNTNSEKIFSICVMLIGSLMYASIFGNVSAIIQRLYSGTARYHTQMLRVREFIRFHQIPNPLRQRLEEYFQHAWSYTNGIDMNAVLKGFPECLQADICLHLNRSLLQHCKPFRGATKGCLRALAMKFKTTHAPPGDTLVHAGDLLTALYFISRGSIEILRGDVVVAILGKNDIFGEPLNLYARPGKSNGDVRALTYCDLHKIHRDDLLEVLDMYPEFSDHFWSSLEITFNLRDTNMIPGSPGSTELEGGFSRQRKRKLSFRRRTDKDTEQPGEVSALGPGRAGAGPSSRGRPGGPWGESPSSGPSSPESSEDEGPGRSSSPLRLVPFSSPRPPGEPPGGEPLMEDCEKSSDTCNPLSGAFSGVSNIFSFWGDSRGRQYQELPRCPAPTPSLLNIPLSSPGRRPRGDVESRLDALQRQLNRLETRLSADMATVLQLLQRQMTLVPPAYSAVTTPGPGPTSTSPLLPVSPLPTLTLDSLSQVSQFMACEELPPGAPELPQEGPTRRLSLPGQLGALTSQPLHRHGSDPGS

Row | Compound | hERG current change (%, negative = inhibition) at 10uM [%]
1 | CCOc1ccc(CCNC(=O)CCc2nc3ccccc3[nH]2)cc1OCC | -1.68
2 | CCOc1ccccc1C1CC(=O)Nc2cc(C)c(C)cc21 (stereo not drawn) | -7.74
3 | CCCNC(=S)NCc1ccc(Cl)cc1 | -1.64
4 | COCCn1c(=O)[nH]c2cc(C(=O)Nc3nnc(C)s3)ccc21 | 6.11
5 | Cc1cc2sc(NC(=O)c3ccco3)nc2cc1Cl | 19.6
6 | Cc1cc(OC(=O)c2cc(Cl)nc3ccccc23)ccc1Cl | 10.7
7 | Br.COc1ccc(-c2nc3n(c2Br)CCC3)cc1 | -2.71
8 | Cc1ccc(Cl)cc1NC(=S)N(Cc1cccnc1)Cc1ccccc1Cl | 2.23
9 | O=C1C(NS(=O)(=O)c2cccs2)=C(N2CCOCC2)C(=O)c2ccccc21 | -40.8
10 | Cc1ccc(S(=O)(=O)N(CC(=O)N(C(C)C)C(C)C)C(=O)N2CCN(C)CC2)cc1 | 4.66
11 | COc1ccc(CCNC(=O)CCc2cc(OC)c(OC)c(OC)c2)cc1OC | 5.3
12 | COc1ccc(NC(=O)c2cc(N3C(=O)C4C5CCC(C5)C4C3=O)ccc2Cl)c(OC)c1 (stereo not drawn) | 7.7
13 | O=C(COC(=O)c1cccc([N+](=O)[O-])c1)c1ccc(OCc2ccccc2)cc1 | 27.6
14 | C=CCOc1ccc(C2C(C(=O)c3ccc(C)o3)=C(O)C(=O)N2Cc2cccnc2)cc1 (stereo not drawn) | 15.9
15 | Cc1cccc(NC(=O)c2ccc3c(c2)C(=O)N(c2ccccn2)C3=O)c1C | 12.9
16 | S=C(NCC1CCCO1)Nc1ccccc1Cl (stereo not drawn) | 5.02
17 | C[C@@H]1CC=C[C@H]2[C@H]1C(=O)N(Cc1ccccc1)[C@H]2c1ccc(-c2ccc(N(C)C)cc2)cc1F | 4.02
18 | CCCCNc1c(N)n(CCCC)c(=O)[nH]c1=O | -19.2
19 | Cc1cc(C)c2c(=O)[nH]c(SCC(=O)c3ccc(C)c(C)c3)nc2n1 | 6.59
20 | COc1ccc(/C=C/C(=O)Nc2cccc(S(=O)(=O)NC3=NCCCCC3)c2)cc1 | -43
21 | CCN(CC)CCCN1C=C2C(=O)C(C)(OC(=O)CCC(=O)OC)C(=O)C(Br)=C2C=C1c1ccc(OC)cc1 (stereo not drawn) | -10.6
22 | CC(C)n1c(SCC(=O)Nc2nncs2)nnc1C1CC1 | -2.18
23 | O=C(c1cccc(N2CCCC2=O)c1)N1CCN(c2cccc(Cl)c2)CC1 | -25.6
24 | COc1ccc(C)cc1Nc1n[n+](-c2ccccc2)c(-c2ccc(NC(C)=O)cc2)s1.[Cl-] | 12.8
25 | COc1ccc(/C=C/C(=O)O)cc1S(=O)(=O)NCC1CCCO1 (stereo not drawn) | 14.1
26 | CCCc1nnc(SCc2ccc(OCC)cc2)n1N | 10.7
27 | COc1ccc(Cl)cc1S(=O)(=O)N(C)CC(=O)NCCCn1ccnc1 | 10.2

Row | Compound | hERG current change (%, negative = inhibition) at 10uM [%]
28 | Cc1ccc(S(=O)(=O)NC(C)(C)CN2CCc3ccccc3C2)cc1 | -34.1
29 | Cc1nnc(SCCn2c(N(C)Cc3ccccc3)nc3c2c(=O)n(C)c(=O)n3C)s1 | -26.6
30 | O=C(C1CCN(c2ccc(N3CCOCC3)nn2)CC1)N1CCN(c2ccc(F)cc2)CC1 | -47.4
31 | Cc1nc2ccccc2nc1OCc1cccc([N+](=O)[O-])c1 | 11.7
32 | COc1ccc(OC)c(NC(=O)CN2CCC(C(=O)c3ccc(C)cc3)CC2)c1 | -17.7
33 | O=C(Nc1ccc(Cl)cn1)c1ccc2ccccc2n1 | 12
34 | Cn1c(-c2cc(Br)ccc2O)n[nH]c1=S | 16.2
35 | COc1ccc(C(=O)NCC(c2ccco2)N2CCOCC2)cc1OC (stereo not drawn) | 24.9
36 | CN(C(=O)COC(=O)CSc1ccc(C(N)=O)cc1[N+](=O)[O-])C1CCS(=O)(=O)C1 (stereo not drawn) | -11.4
37 | CCn1cc(S(=O)(=O)N2CCCC2)cn1 | 8.1
38 | C[C@H](NC(=O)OC(C)(C)C)C(=O)NCC1CCC(C(=O)N[C@@H](Cc2ccccc2)C(=O)O)CC1 (stereo partly drawn) | 13.9
39 | CC1CCc2c(sc(NC(=O)Cn3nc(C(=O)O)c4ccccc4c3=O)c2C#N)C1 (stereo not drawn) | 4.25
40 | NC(=O)CSc1nnc(COc2ccc3ccccc3c2)o1 | 18.6
41 | CCC1(CC)NC(=O)N(CC(=O)N2CCN(S(=O)(=O)c3cccc(F)c3)CC2)C1=O | 7.12
42 | COc1ccc(N(Cc2ccccc2)S(=O)(=O)c2ccc(C)cc2)cc1 | 6.2
43 | Cc1cc(C)n2nc(C(=O)N/N=C/c3cccc(Cl)c3)nc2n1 | -23.4
44 | O=C(COC(=O)c1ccc(Cl)nc1)NCc1cccs1 | 20.2
45 | O=C(c1ccccc1Cl)c1c(O)c2ccccc2oc1=O | -3.19
46 | COCCCN1C(=O)C(=O)/C(=C(/O)c2ccc(S(=O)(=O)N3CCCCC3)cc2)C1c1ccc(F)cc1 (stereo not drawn) | 15.2
47 | COc1ccc(NS(=O)(=O)c2ccc(NS(=O)(=O)c3cccc(C(=O)O)c3)cc2)cc1 | 17.4
48 | CC1=CC(C)(C)N(C(=O)CN2C(=O)CCC2=O)c2ccc(C)cc21 | -15.4
49 | Cc1cc(C)c2nc(N(CCCN(C)C)C(=O)c3ccc(S(=O)(=O)N4CC(C)OC(C)C4)cc3)sc2c1.Cl (stereo not drawn) | -33.7
50 | Cn1c(=O)c2c(SCc3cccnc3)nc(C3CC3)nc2n(C)c1=O | -9.63
51 | CC(=O)Nc1ccc(NC(=O)C(C)Oc2ccc(C)nc2[N+](=O)[O-])cc1 (stereo not drawn) | 3.14
52 | O=C(Nc1ccccc1N1CCOCC1)c1ccc(OCc2cscn2)cc1 | -17.5
53 | COCCN(Cc1nc2ccccc2c(=O)[nH]1)C(=O)COc1cccc(C(C)=O)c1 | -23
54 | CCN(CC(=O)NCc1ccc(F)cc1)C(=O)C1CC1C (stereo not drawn) | -1.06
